# Source: PubChem BioAssay AID588579 (National Center for Advancing Translational Sciences (NCATS), 2011)
# Among all 400,000 compounds or so, about 2,200 (0.55%) were called active. Inconclusive means that the source gave no clear call. Such entries were picked first, then a sample of the others. Calls follow the shape of the dose curve; as a rule, active = well fitted inhibition curve with a large enough effect; inconclusive = small, poorly fitted or top-dose-only effect, or another doubt; inactive = no such curve, though single readings can be large or run the other way. Where the call is inconclusive, the potency comes from a doubtful curve fit.
# Target: DNA polymerase kappa (Homo sapiens) (UniProt Q9UBT6)
# UniProt Q9UBT6, sequence (Q9UBT6 whole entry, looked up): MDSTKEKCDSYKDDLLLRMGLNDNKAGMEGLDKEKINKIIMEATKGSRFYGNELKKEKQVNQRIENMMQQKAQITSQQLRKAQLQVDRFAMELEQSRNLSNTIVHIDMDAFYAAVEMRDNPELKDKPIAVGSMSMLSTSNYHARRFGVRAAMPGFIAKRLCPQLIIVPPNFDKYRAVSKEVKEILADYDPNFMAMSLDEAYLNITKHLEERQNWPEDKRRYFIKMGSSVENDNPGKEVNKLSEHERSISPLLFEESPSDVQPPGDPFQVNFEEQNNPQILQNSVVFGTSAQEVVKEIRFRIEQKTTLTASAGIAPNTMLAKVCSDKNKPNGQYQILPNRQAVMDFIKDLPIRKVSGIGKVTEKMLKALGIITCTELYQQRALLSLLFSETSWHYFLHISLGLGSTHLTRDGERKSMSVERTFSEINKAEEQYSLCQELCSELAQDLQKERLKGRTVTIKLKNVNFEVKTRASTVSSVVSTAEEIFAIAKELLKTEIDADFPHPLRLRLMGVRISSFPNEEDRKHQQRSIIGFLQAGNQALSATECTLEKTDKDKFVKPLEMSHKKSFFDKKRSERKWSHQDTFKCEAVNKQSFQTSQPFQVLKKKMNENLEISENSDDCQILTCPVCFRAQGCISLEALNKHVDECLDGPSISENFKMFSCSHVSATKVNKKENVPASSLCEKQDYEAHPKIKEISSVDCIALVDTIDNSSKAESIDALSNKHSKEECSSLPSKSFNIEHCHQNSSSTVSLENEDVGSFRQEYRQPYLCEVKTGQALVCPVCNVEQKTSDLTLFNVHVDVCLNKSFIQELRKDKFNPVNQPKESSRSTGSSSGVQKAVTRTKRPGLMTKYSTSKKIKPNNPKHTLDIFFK
# Experiment: qHTS for Inhibitors of Polymerase Kappa
# Conditions: purified Pol kappa, fluorescent DNA synthesis assay, 10 min; series mostly up to 107 µM
# In short: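 Pol kappa 10 nM + cpd, 15 min RT; start w/ substrate 50 nM final; fluorescence kinetic read, 0 and 10 min. Neg ctrl: buffer, no enzyme.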
# Potency is read from the fitted curve at half-maximal effect; tags tell the direction and shape of the fitted curve.
row,SMILES,Potency
1,CC(NC(=O)c1ccc2c(c1)CCN2S(=O)(=O)c1ccc(Cl)cc1)c1ccccc1 (stereo not given),inactive
2,Cc1ccc(CSc2nnc(-c3ccc(NC(=O)CCc4ccccc4)cc3)n2C)cc1,inactive
3,CC1CCC2(CC1)NC(=O)N(CC(=O)Nc1sc3c(c1C(N)=O)CCC3)C2=O (stereo not given),"inconclusive: 50.1 µM [inhibitor, partial curve, poor fit]"
4,C1=CN2CC=Cc3cc(/C=C/c4ccnc5ccccc45)cc(c32)C1,"inconclusive: 79.4 µM [inhibitor, partial curve]"
5,COc1cc(/C=C/C(=O)c2cccs2)cc(OC)c1OC,"inconclusive: 2.51 µM [inhibitor, partial curve, poor fit]"
6,CCOC(=O)CSc1nc(=O)n2cccc(C)c2n1,inactive
7,Cc1cccc(NS(=O)(=O)c2ccc(C)c(C(=O)NCc3ccccn3)c2)c1,inactive
8,Cc1cc(=O)[nH]c2ccc(O)cc12,"inconclusive: 56.2 µM [inhibitor, partial curve, poor fit]"
9,Cc1ccc(-c2[nH]c(-c3ccc(C(=O)O)cc3)nc2-c2ccccc2)cc1,inactive
10,Cc1ccc(SC(C)C(=O)Nc2ccc(S(=O)(=O)N3CCOCC3)cc2)cc1 (stereo not given),"inconclusive: 89.1 µM [inhibitor, partial curve, poor fit]"
11,C/C(=N\Nc1ccc(Cl)c(C(=O)O)c1)c1ccc[nH]1,active: 44.7 µM
12,CCOC(=O)C(=O)Cc1cccnn1,"inconclusive: 89.1 µM [inhibitor, single point]"
13,CC1=Nc2ccccc2/C1=C/c1sc(=S)n(-c2cccc(C(=O)O)c2)c1O,"inconclusive: 100 µM [inhibitor, single point]"
14,COc1ccc(C(=O)CSc2ccc(-c3ccco3)nn2)cc1,inactive
15,Cc1cccn2c(=O)c3cc(S(=O)(=O)c4ccc(F)cc4)c(=N)n(Cc4ccco4)c3nc12,"inconclusive: 79.4 µM [inhibitor, single point]"
16,C[C@H](C(=O)O)c1ccc2cc(O)ccc2c1,"inconclusive: 33.6 µM [inhibitor, single point]"
17,O=C(/C=C/c1ccccc1)NCCc1ccccc1,"inconclusive: 56.2 µM [inhibitor, partial curve, poor fit]"
18,CCOc1ccccc1NC(=O)c1cc(S(=O)(=O)N2CCN(CC)CC2)ccc1Cl,"inconclusive: 100 µM [inhibitor, single point]"
19,COc1cc2c(cc1NC(=O)CSc1nc3ccccc3[nH]1)oc1ccccc12,"inconclusive: 89.1 µM [inhibitor, single point]"
20,CN(C)CCNC(=O)c1cccc2nc3cccc(F)c3nc12,"inconclusive: 31.6 µM [inhibitor, single point]"
